Test system: fibroblast monolayers
Experiment: Influx/uptake of ^3 H-FC (free cholesterol) from labeled LDL (or plasma, HDL) into normal fibroblast monolayers
Format: cell-based, human
Conditions: proteinase K pretreatment (10 μg ml^-1, 8-10 min); 4 experiments

B1: proteinase K: proteinase K (final concentration 10 μg ml^-1) (protein, UniProt P06873 106-384, looked up)
Proteinase K: AAQTNAPWGLARISSTSPGTSTYYYDESAGQGSCVYVIDTGIEASHPEFEGRAQMVKTYYYSSRDGNGHGTHCAGTVGSRTYGVAKKTQLFGVKVLDDNGSGQYSTIIAGMDFVASDKNNRNCPKGVVASLSLGGGYSSSVNSAAARLQSSGVMVAVAAGNNNADARNYSPASEPSVCTVGASDRYDRRSSFSNYGSVLDIFGPGTSILSTWIGGSTRSISGTSMATPHVAGLAAYLMTLGKTTAASACRYIADTANKGDLSNIPFGTVNLLAYNNYQA
- inhibition of uptake of ^3 H-FC LDL label: 7±6%

— patent US5922554A, “Inhibition of cellular uptake of cholesterol” (The Regents of the University of California, priority 1996, dated 1999)
